{"source": "PubChem BioAssay AID1645887", "about": "(National Center for Advancing Translational Sciences (NCATS), 2021)", "note": "Values joined by “and” are separate entries in the source; they are usually repeats but may differ in a detail not shown here. Equal values may be shown once. Out of some 16,000 compounds screened, about 40 (0.2%) were called active. Another 1% or so got no clear call; they are omitted. Calls come from the whole dose curve; as a rule, active = well fitted activation curve with a large enough effect; inconclusive = small, poorly fitted or top-dose-only effect, or another doubt; inactive = no such curve, though single readings can be large or run the other way. Some of the results follow. Non-standard residues stand in square brackets, D forms with d. Residues, ends and D or L forms follow the SMILES beside them. Met(O) = CS(=O)CC[C@H](N)C(=O)O; Phe(ol) = N[C@H](CO)Cc1ccccc1; Sar = CNCC(=O)O"}
{"molecular_target": "Rap guanine nucleotide exchange factor 4 (Homo sapiens) (UniProt Q8WZA2)", "sequence (Q8WZA2 whole entry, looked up)": "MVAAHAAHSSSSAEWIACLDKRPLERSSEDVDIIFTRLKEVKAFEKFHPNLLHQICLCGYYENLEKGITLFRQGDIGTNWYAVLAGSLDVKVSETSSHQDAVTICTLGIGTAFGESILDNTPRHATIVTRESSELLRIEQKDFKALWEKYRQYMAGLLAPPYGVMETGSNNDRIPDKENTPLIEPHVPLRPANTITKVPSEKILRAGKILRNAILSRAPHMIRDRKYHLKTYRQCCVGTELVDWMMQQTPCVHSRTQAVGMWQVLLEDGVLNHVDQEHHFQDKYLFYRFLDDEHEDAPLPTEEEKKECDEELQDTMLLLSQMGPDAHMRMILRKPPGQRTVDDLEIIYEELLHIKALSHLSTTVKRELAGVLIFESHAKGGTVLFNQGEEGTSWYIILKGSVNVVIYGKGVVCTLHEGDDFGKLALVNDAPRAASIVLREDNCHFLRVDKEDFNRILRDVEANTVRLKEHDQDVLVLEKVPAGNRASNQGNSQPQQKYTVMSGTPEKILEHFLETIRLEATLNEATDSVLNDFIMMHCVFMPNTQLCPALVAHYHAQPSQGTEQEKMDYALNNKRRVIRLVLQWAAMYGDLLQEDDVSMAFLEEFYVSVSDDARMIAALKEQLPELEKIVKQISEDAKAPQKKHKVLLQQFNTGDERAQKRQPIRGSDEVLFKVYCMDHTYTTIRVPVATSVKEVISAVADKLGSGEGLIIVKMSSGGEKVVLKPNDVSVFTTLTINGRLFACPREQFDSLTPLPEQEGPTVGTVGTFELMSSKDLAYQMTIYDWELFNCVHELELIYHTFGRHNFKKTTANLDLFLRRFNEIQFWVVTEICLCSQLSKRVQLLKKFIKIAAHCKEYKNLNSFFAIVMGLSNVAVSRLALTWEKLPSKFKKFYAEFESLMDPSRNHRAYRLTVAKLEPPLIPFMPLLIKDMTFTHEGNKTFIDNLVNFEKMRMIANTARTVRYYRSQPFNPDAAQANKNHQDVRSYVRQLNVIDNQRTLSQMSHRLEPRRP", "test": "Validation qHTS for agonist of cAMP-regulated guanine nucleotide exchange factor 4 (EPAC2);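 note: exchange makes BODIPY-GDP fluorescence drop when released from Rap1B; series mostly up to about 150 µM; % is set by controls: 0 for no effect and ±100 for the full control effect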", "conditions": "EPAC2 Rap1B BODIPY-GDP exchange, fluorescence; activation: stronger effect = higher value", "summary_of_the_method": "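Signal normalized against 6.5 mM cAMP as agonist control. Mix of EPAC2 (100 nM), RAP1B-BODIPY-GDP (250 nM) and GDP (50 uM) was read kinetically at 480/540 nm, every 5 min over 30 min, after 5 min room-temperature incubation with compound.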"}
{"molecule": "CC(=O)[C@H]1CCC2C3CC[C@H]4C[C@H](O)CC[C@]4(C)C3CC[C@@]21C", "note": "(stereo not given in full)", "activation": "inactive: -54.9%"}
{"molecule": "Clc1ccc(COC(Cn2ccnc2)c2ccc(Cl)cc2Cl)cc1", "note": "(stereo not given)", "activation": "inactive: -16.6% and inactive: 20.8%"}
{"molecule": "COc1ccc2c(c1OC)C(=O)OC2C1c2cc3c(cc2CCN1C)OCO3", "note": "(stereo not given)", "activation": "inactive: 4.07% and inactive: 7.74% and inactive: 0.336%"}
{"molecule": "CCN(CC)/[N+]([O-])=N/O", "activation": "inactive: -5.38%"}
{"molecule": "CCC(C)C(=O)O[C@@H]1C[C@@]2(C)C(c3ccoc3)OC(=O)CC23OC2(C)O[C@@]14[C@@]1(C)C(CC(=O)OC)C5(C)CC1(O)C(O)(C5OC(=O)C1(C)OC1C)C(OC(C)=O)[C@@]34O2", "note": "(stereo not given in full)", "activation": "inactive: -33.9%"}
{"molecule": "c1ccc(C[C@@H](c2ccccc2)N2CCCCC2)cc1", "activation": "inactive: 2.39%"}
{"molecule": "Clc1ccc(C2(Cn3cncn3)OCCO2)c(Cl)c1", "activation": "inactive: -6.32%"}
{"molecule": "Cc1[nH]c2ccccc2c1CN(C)C", "activation": "inactive: -2.62%"}
{"molecule": "Cc1nc(-c2ccc(-c3ccc(C(=O)N4CCc5cc6c(cc54)C4(CCN(C)CC4)CO6)cc3)c(C)c2)no1", "activation": "inactive: -29.4%"}
{"molecule": "C[C@]12CCC3C(CC[C@H]4C[C@H](O)CC[C@]34C)[C@@H]1CC[C@@H]2C(=O)CO", "note": "(stereo not given in full)", "activation": "inactive: -7.64%"}
{"molecule": "CCOC(=O)C1(c2ccccc2)CCCN(C)CC1", "note": "(stereo not given)", "activation": "inactive: -6.73%"}
{"molecule": "CC(Cc1ccccc1)NC=O", "note": "(stereo not given)", "activation": "inactive: 1.9%"}
{"molecule": "CN(CC(=O)N[C@H](CO)Cc1ccccc1)C(=O)[C@H](CCS(C)=O)NC(=O)[C@@H](N)Cc1ccc(O)cc1", "note": "(stereo not given in full) (H-Y[Met(O)][Sar][Phe(ol)])", "activation": "inactive: 5.51%"}
{"molecule": "O=CC=O", "activation": "inactive: 2.16%"}
{"molecule": "NC1C[C@H]1c1ccccc1", "note": "(stereo not given in full)", "activation": "inactive: -2.77%"}
{"molecule": "CCCCCCC(C)OC(=O)COc1ccc(Cl)cc1Cl", "note": "(stereo not given)", "activation": "inactive: 1.03%"}
{"molecule": "c1ccc(N2CCC3(CCNCC3)CC2)nc1", "activation": "inactive: 3.08%"}
{"molecule": "CC(C)c1cccc(C(C)C)c1O", "activation": "inactive: -14.6% and inactive: -35.8% and inactive: -13%"}
{"molecule": "CN1C2CCC1CC(OC(c1ccc(F)cc1)c1ccc(F)cc1)C2", "note": "(stereo not given)", "activation": "inactive: -4.58%"}
{"molecule": "O=C(O)CC[N+](=O)[O-]", "activation": "inactive: -4.45% and inactive: -23.2%"}
{"molecule": "O=C1NCN(c2ccccc2)C12CCN(CCCOc1ccc(F)cc1)CC2", "activation": "inactive: -17% and inactive: -5.87% and inactive: -9.91%"}
{"molecule": "Oc1ccc2c3c1O[C@H]1[C@@H](O)CC[C@@]4(O)[C@@H](C2)N(CC2CCC2)CC[C@]314", "activation": "inactive: -12.5%"}
{"molecule": "c1ccc([C@H]2CNCc3ccccc32)cc1", "activation": "inactive: -22.9%"}
{"molecule": "C/C=C/c1ccc2c(c1)OCO2", "activation": "inactive: -18.4% and inactive: 6.73%"}
{"molecule": "OCc1cnc[nH]1", "activation": "inactive: -27.2%"}
{"molecule": "C[C@@H]1O[C@@H](O[C@H]2C[C@@H](O)[C@]3(CO)[C@@H]4C(CC[C@]3(O)C2)[C@@]2(O)CC[C@H]([C@@H]3COC(=O)C3)[C@@]2(C)C[C@H]4O)[C@H](O)[C@H](O)[C@H]1O", "note": "(stereo not given in full)", "activation": "inactive: -4.36%"}
{"molecule": "Clc1ccccc1-c1cncnc1NCCc1cnc[nH]1", "activation": "inactive: -14.4%"}
{"molecule": "CCCN(C/C=C\\I)[C@@H]1CCc2ccc(O)cc2C1", "activation": "inactive: -9.11%"}
{"molecule": "CC[C@@]1(O)CC(O)c2c(cc3c(c2O)C(=O)c2c(O)ccc(O)c2C3=O)C1C(=O)OC", "note": "(stereo not given in full)", "activation": "inactive: -3.1%"}
{"molecule": "CCCCCCCCCC(=O)O[C@H]1CC[C@H]2[C@@H]3CCC4=CC(=O)CC[C@@H]4[C@H]3CC[C@]12C", "activation": "inactive: -3.82%"}
{"molecule": "O=C(NCNC(=O)NC1C(=O)NC(=O)N1CO)NC1C(=O)NC(=O)N1CO", "note": "(stereo not given)", "activation": "inactive: -26.7%"}
{"molecule": "CC(=O)O[C@H]1CC[C@@]2(C)C(=CC[C@@H]3[C@@H]2CC[C@]2(C)C(=O)CC[C@@H]32)C1", "activation": "inactive: -16.2%"}
{"molecule": "CC1CCC2C(C)C(=O)OC3OC4(C)CCC1C32OO4", "note": "(stereo not given)", "activation": "inactive: -2.54%"}
{"molecule": "CCN[C@H](C)Cc1cccc(C(F)(F)F)c1", "activation": "inactive: 3.32%"}
{"molecule": "O=C1C2CC=CCC2C(=O)N1SC(Cl)(Cl)Cl", "note": "(stereo not given)", "activation": "inactive: -12.1%"}
{"molecule": "O=C(Oc1ccccc1)N1CCC2(CC1)CN(Cc1ccncc1)C2", "activation": "inactive: 2.79%"}
{"molecule": "N#CC(C#N)=Cc1cc(O)c(O)c(O)c1", "activation": "inactive: -6.63% and inactive: 9.37%"}
{"molecule": "CCCCCCCCCCCCCCCC[N+](C)(C)C", "activation": "inactive: -8.8% and inactive: 10.7%"}
{"molecule": "O=[N+]([O-])c1ccccc1", "activation": "inactive: -24.9%"}
{"molecule": "C[C@@H]1O[C@@H](O[C@H]2CC[C@]3(C=O)C4CC[C@]5(C)[C@@H](C6=CC(=O)OC6)CC[C@]5(O)[C@@H]4CC[C@]3(O)C2)[C@H](O)[C@H](O)[C@H]1O", "note": "(stereo not given in full)", "activation": "inactive: -14.2%"}
{"molecule": "CN1C[C@H](CNC(=O)OCc2ccccc2)C[C@@H]2c3cccc4c3c(cn4C)C[C@H]21", "activation": "inactive: 18.4% and inactive: 17.9% and inactive: 1.47%"}
{"molecule": "CC(C)(O)C1O[C@H]2CC[C@@]3(C)[C@@](O)(CC[C@H]4Cc5c([nH]c6ccccc56)[C@@]43C)C2=CC1=O", "note": "(stereo not given in full)", "activation": "inactive: 14.4% and inactive: -7.16% and inactive: 7.56%"}
{"molecule": "CCN1C[C@@]2(COC)C3[C@@H](OC)C4[C@@H]1C3([C@@H]1C[C@]3(O)[C@H](OC(=O)c5ccccc5)[C@@H]1[C@]4(OC(C)=O)[C@@H](O)[C@@H]3OC)[C@H](OC)C[C@H]2O", "activation": "inactive: -20.7%"}
{"molecule": "CC(=O)N1CC[N+](C)(C)CC1", "activation": "inactive: 3.87% and inactive: 2.54%"}
{"molecule": "O=c1ccc2cc(OC3OC(CO)C(O)C(O)C3O)c(O)cc2o1", "note": "(stereo not given)", "activation": "inactive: -5.75%"}
{"molecule": "COc1ccc2c(c1)[C@@]13CCCC[C@H]1[C@@H](C2)NCC3", "activation": "inactive: -31.3%"}
{"molecule": "CC[C@@H](CO)NC(=O)[C@@H]1C=C2c3cccc4c3c(cn4C)C[C@H]2N(C)C1", "activation": "inactive: 16.6% and inactive: -4.64%"}
{"molecule": "COc1ccc(NC(=O)N2CC[C@@]3(CCCN(C(=O)Oc4ccccc4)C3)C2)cc1", "activation": "inactive: -22.6%"}
{"molecule": "NC(CO)Cc1ccccc1", "note": "(stereo not given)", "activation": "inactive: -4.92%"}
{"molecule": "N#Cc1cccc(NC(=O)N2CC[C@@]3(CCCN(C(=O)Oc4ccccc4)C3)C2)c1", "activation": "inactive: -18%"}
